Structures can show the parent of a compound that is named as a salt. ± gives the standard deviation of the averaged measurements. The full ranking holds about 3,100 compounds; the median of “mean cytoplasmic OPP incorporation (global translation) relative to DMSO” is about 100, and the lowest 2% start at about 56. Some of the results follow.
System: U2OS
Experiment: mean cytoplasmic OPP incorporation (global translation) relative to DMSO (% of DMSO); higher = more protein synthesis
Conditions: 10 µM; 24 h
Method: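 Primary image-based screen in U2OS cells: compounds at 10 uM for 24 h, then a 1 h o-propargyl-puromycin (OPP) pulse, click labelling, and high-throughput microscopy. Mean cytoplasmic OPP intensity and nuclei count were normalised to DMSO wells within each plate (DMSO = 100) and averaged over triplicate plates.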

Going from CC(=O)NS(=O)(=O)c1ccc(N)cc1 [Sulfacetamide Sodium] to CC(C)(C)c1ccc(S(=O)(=O)/C=C/C#N)cc1, the “mean cytoplasmic OPP incorporation” value falls from 99.6 to 82.7.

Going from CC(=O)NS(=O)(=O)c1ccc(N)cc1 [Sulfacetamide sodic hydrate] to O=C(O)c1ccccc1C(=O)Nc1ccc(S(=O)(=O)Nc2nccs2)cc1 [Phthalylsulfathiazole], the “mean cytoplasmic OPP incorporation” value falls from 92.9 to 90.3.

Going from Cc1cn([C@H]2C=C[C@@H](CO)O2)c(=O)[nH]c1=O [Stavudine] to O=C(O)c1cc(=O)c2c(Cl)cc(Cl)cc2[nH]1 [5,7-Dichlorokynurenic acid], the “mean cytoplasmic OPP incorporation” value falls from 104 ± 8.6 to 93.5.

First: C=C1CC[C@@H]2[C@](C)(CO)[C@H](O)CC[C@@]2(C)[C@@H]1C/C=C1/C(=O)OC[C@H]1O [Andrographolide]
Second: C[C@]12CC[C@@H]3c4ccc(OC(=O)c5ccccc5)cc4CC[C@H]3[C@@H]1CC[C@@H]2O [Estradiol Benzoate]
The “mean cytoplasmic OPP incorporation” value of the first is lower: 90.5 for the first, 99.8 for the second.

Compared with OCc1ccccc1O[C@@H]1O[C@H](CO)[C@@H](O)[C@H](O)[C@H]1O [Salicin (Salicoside, Salicine)], NC[C@@H]1O[C@@H](O[C@H]2[C@H](O)[C@@H](O[C@H]3O[C@H](CO)[C@@H](O)[C@H](N)[C@H]3O)[C@H](N)C[C@@H]2N)[C@@H](O)[C@H](O)[C@H]1O [Kanamycin A sulfate] is lower in “mean cytoplasmic OPP incorporation” value: 107 for the first, 105 for the second.

Compared with CN1C(CCl)Nc2cc(Cl)c(S(N)(=O)=O)cc2S1(=O)=O (centres undefined) [Methyclothiazide], COc1cc(COc2cc(N)c(Cl)cc2C(=O)CCC2CCN(CCNS(C)(=O)=O)CC2)cc(OC)c1 is higher in “mean cytoplasmic OPP incorporation” value: 92.9 for the first, 110 for the second.

Going from C=CC1=C(C(=O)O)N2C(=O)[C@@H](NC(=O)/C(=N\O)c3csc(N)n3)[C@H]2SC1 [Cefdinir (Omnicef)] to COC(=O)C1=C(C#N)NC(C)=C(C(=O)OC(C)C)C1c1cccc([N+](=O)[O-])c1 (centres undefined) [Nilvadipine], the “mean cytoplasmic OPP incorporation” value rises from 101 to 112.

First: C=CC1=C(C(=O)O)N2C(=O)[C@@H](NC(=O)/C(=N\O)c3csc(N)n3)[C@H]2SC1 [Cefdinir]
Second: Cc1ccc(NC(=O)C2(c3ccc4c(c3)OC(F)(F)O4)CC2)nc1-c1cccc(C(=O)O)c1
The “mean cytoplasmic OPP incorporation” value of the first is higher: 113 for the first, 100 for the second.

COc1ccc(NS(=O)(=O)c2ccc(I)cc2)cc1N1CCN(C)CC1 and O=C(NCCCCN1CCN(c2cccc(Cl)c2Cl)CC1)c1ccc2c(c1)Cc1ccccc1-2 are the same in “mean cytoplasmic OPP incorporation” value: 107 for the first, 107 for the second.

Going from CCCN(C/C=C/I)C1CCc2cccc(O)c2C1 (centres undefined) [8-Hydroxy-PIPAT oxalate] to CN1CCCN=C1/C=C/c1cccc(O)c1 [Oxantel pamoate], the “mean cytoplasmic OPP incorporation” value falls from 98.5 to 98.

First: C[C@@H]1C[C@H]2[C@@H]3CCC4=CC(=O)C=C[C@]4(C)[C@@]3(F)[C@@H](O)C[C@]2(C)[C@@]1(O)C(=O)COP(=O)(O)O [Dexamethasone Sodium Phosphate]
Second: COC(=O)[C@@H]1CC2=CC(=O)CC[C@]2(C)[C@@]23O[C@@H]2C[C@@]2(C)[C@@H](CC[C@@]24CCC(=O)O4)[C@H]13 [Eplerenone]
The “mean cytoplasmic OPP incorporation” value of the first is lower: 97 for the first, 100.1 ± 0.51 for the second.

First: Cc1cc(C)c(S(=O)(=O)Nc2ccccc2C(F)(F)F)c(C)c1
Second: CNc1nc(Nc2cn(C(C)(C)C#N)nc2C)ncc1C(F)(F)F
The “mean cytoplasmic OPP incorporation” value of the first is lower: 97.3 for the first, 101 for the second.

First: CC(C)[C@H](CO)Nc1nc(Nc2ccc(C(=O)O)c(Cl)c2)c2ncn(C(C)C)c2n1 [Purvalanol B]
Second: CC[C@H](CO)Nc1nc(NCc2ccccc2)c2ncn(C(C)C)c2n1 [Roscovitine (Seliciclib, CYC202)]
The “mean cytoplasmic OPP incorporation” value of the first is lower: 98.6 for the first, 104 for the second.

Going from Cn1cc(CCn2cnc(-c3cnn(C)c3)c2-c2ccc(C#N)cc2)cn1 to NC(=O)c1ccc(-c2nc(-c3ccccn3)c(-c3ccc4c(c3)OCO4)[nH]2)cc1, the “mean cytoplasmic OPP incorporation” value rises from 96.3 to 104.

CC(C)OC(=O)OCOP(=O)(CO[C@H](C)Cn1cnc2c(N)ncnc21)OCOC(=O)OC(C)C [Tenofovir Disoproxil Fumarate] and CC(C)OC(=O)C(C)(C)Oc1ccc(C(=O)c2ccc(Cl)cc2)cc1 [Fenofibrate] are the same in “mean cytoplasmic OPP incorporation” value: 105 for the first, 105 for the second.

Compared with CN(c1nccc(=O)[nH]1)C1CCN(c2nc3ccccc3n2Cc2ccc(F)cc2)CC1 [Mizolastine], O=C(CCCN1CCN(c2ccccn2)CC1)c1ccc(F)cc1 [Azaperone] is lower in “mean cytoplasmic OPP incorporation” value: 103 for the first, 89 for the second.

Going from CCS(=O)(=O)N1CCC[C@@H]2CN3CCc4cc(OC)ccc4[C@@H]3C[C@@H]21 to COCCCN1CCC(NC(=O)c2cc(Cl)c(N)c3c2OCC3)CC1 [Prucalopride], the “mean cytoplasmic OPP incorporation” value rises from 99.9 to 111.

Going from Cc1ccc(NC(=O)c2cccc(C(C)(C)C#N)c2)cc1Nc1ccc2ncn(C)c(=O)c2c1 to Cc1cn(-c2cc(NC(=O)c3ccc(C)c(Nc4nccc(-c5cccnc5)n4)c3)cc(C(F)(F)F)c2)cn1 [Nilotinib (AMN-107)], the “mean cytoplasmic OPP incorporation” value rises from 100 ± 6.5 to 118.

Compared with CC(CCCCC(=O)Nc1ccc(C(F)(F)F)cc1)NCCc1cnc[nH]1 (centres undefined) [HTMT dimaleate], CCCCCCNC(=O)Nc1ccc(S(=O)(=O)Nc2ccc(CCNC[C@H](O)COc3ccc(O)cc3)cc2)cc1 is higher in “mean cytoplasmic OPP incorporation” value: 100 for the first, 107 for the second.

Going from OCCN(CCO)c1nc(N2CCCCC2)c2nc(N(CCO)CCO)nc(N3CCCCC3)c2n1 [Dipyridamole] to Cc1cc(CN2CCN(c3c(Br)cnc4nc(-c5ccc(N6CCN(C)CC6)cc5)[nH]c34)CC2)no1, the “mean cytoplasmic OPP incorporation” value falls from 108 ± 3 to 97.5 ± 3.1.

First: CC(C)(C)[N+]([O-])=Cc1ccc(S(=O)(=O)O)cc1S(=O)(=O)O
Second: O=C(Nc1ccncc1)c1cc([N+](=O)[O-])ccc1Cl
The “mean cytoplasmic OPP incorporation” value of the first is higher: 97.4 for the first, 83.9 for the second.

Compared with C[C@H](CCC(=O)NCCS(=O)(=O)O)[C@H]1CC[C@H]2[C@@H]3CC[C@@H]4C[C@H](O)CC[C@]4(C)[C@H]3C[C@H](O)[C@]12C [Taurodeoxycholic acid], C[C@H](CCC(=O)O)[C@H]1CC[C@H]2[C@@H]3[C@@H](O)C[C@@H]4C[C@H](O)CC[C@]4(C)[C@H]3CC[C@]12C [Urosiol] is lower in “mean cytoplasmic OPP incorporation” value: 99.3 for the first, 96.5 for the second.

First: CN1CCN(C(c2ccccc2)c2ccccc2)CC1 [Cyclizine hydrochloride]
Second: CN1CCC(=C2c3ccccc3Sc3ccccc32)CC1 [Pimethixene maleate]
The “mean cytoplasmic OPP incorporation” value of the first is lower: 98.6 for the first, 112 for the second.

Compared with CC(C)OC(=O)C1=CN(C(=O)c2ccc(F)c(F)c2)CC(C)(C)c2c1[nH]c1ccccc21, CN(C)C(=O)[C@H](O)[C@H](Cc1ccccc1)NC(=O)c1cc2cc(Cl)ccc2[nH]1 is higher in “mean cytoplasmic OPP incorporation” value: 99.9 for the first, 111 for the second.

Going from Cc1ccc(F)c(NC(=O)Nc2ccc(-c3cccc4[nH]nc(N)c34)cc2)c1 [Linifanib (ABT-869)] to COC(=O)[C@H](NC(=O)c1cc(-c2ccccc2)nc2ccccc12)c1ccccc1, the “mean cytoplasmic OPP incorporation” value falls from 99.3 to 96.8.

C[C@H](CCC(=O)O)[C@H]1CC[C@H]2[C@@H]3[C@@H](O)C[C@@H]4C[C@H](O)CC[C@]4(C)[C@H]3CC[C@]12C [Ursodiol (Actigal Urso)] and C#C[C@]1(O)CC[C@H]2[C@@H]3CCC4=CCCC[C@@H]4[C@H]3CC[C@@]21C [Lynestrenol] are the same in “mean cytoplasmic OPP incorporation” value: 106 for the first, 106 for the second.

First: N#Cc1cc2nc(O)c(O)nc2cc1[N+](=O)[O-] [CNQX disodium salt]
Second: CC1(C(=O)O)NCCc2cc(O)c(O)cc21 (centres undefined) [Salsolinol-1-carboxylic acid]
The “mean cytoplasmic OPP incorporation” value of the first is lower: 94.9 for the first, 98.5 for the second.

First: CC1CC(OC(=O)c2ccccc2O)CC(C)(C)C1 (centres undefined) [Homosalate]
Second: CCC(=O)NC1Cc2ccccc2C(c2ccccc2)C1 (centres undefined)
The “mean cytoplasmic OPP incorporation” value of the first is lower: 100 for the first, 102 for the second.

First: C[C@@H](CN1CCC(Cc2ccccc2)CC1)[C@@H](O)c1ccc(O)cc1 [Ro 25-6981 maleate]
Second: Clc1ccccc1CNCC1CCC(CNCc2ccccc2Cl)CC1 (centres undefined)
The “mean cytoplasmic OPP incorporation” value of the first is lower: 107 for the first, 112 for the second.

Compared with Nc1nc(-c2ccc(Cl)c(Cl)c2)c(-c2ccncc2)s1 [CGH 2466 dihydrochloride], Cl/C(=C\n1cncn1)c1ccc(Cl)cc1Cl [Loreclezole hydrochloride] is lower in “mean cytoplasmic OPP incorporation” value: 100 for the first, 98.7 for the second.

First: CCCCC/C=C/C=C1/C(=O)C=C[C@@H]1C/C=C\CCCC(=O)O [15-Deoxy-D12,14-prostaglandin J2]
Second: CCCCC[C@H](O)/C=C/[C@@H]1[C@H]2C/C(=C/CCCC(=O)O)C[C@H]2C[C@H]1O [Carbacyclin]
The “mean cytoplasmic OPP incorporation” value of the first is lower: 90.8 for the first, 101 for the second.

Going from N[C@@H](CS(=O)O)C(=O)O [L-Cysteinesulfinic acid] to N[C@@H](Cc1cc(I)c(Oc2ccc(O)c(I)c2)c(I)c1)C(=O)O [Liothyronine], the “mean cytoplasmic OPP incorporation” value falls from 99.3 to 94.4.

Going from COc1ccc(C2CC(=O)c3c(O)cc(OC4OC(COC5OC(C)C(O)C(O)C5O)C(O)C(O)C4O)cc3O2)cc1OC (centres undefined) [Methyl-Hesperidin] to CCCNC(=O)Nc1ccc(Oc2ncnc3cc(OC)c(OC)cc23)cc1Cl, the “mean cytoplasmic OPP incorporation” value rises from 104 to 112.

Going from Cc1ccc(=O)n(-c2ccccc2)c1 [Pirfenidone] to Cc1c(O)c(=O)n(-c2ccccc2)n1C [Antipyrine, 4-hydroxy], the “mean cytoplasmic OPP incorporation” value rises from 100 to 103.

Going from CN(C)C(=O)C(=O)c1cn(C)c2cc(Cl)c(C(=O)N3CCC(Cc4ccc(F)cc4)CC3)cc12 to CCN1C[C@H](C)n2c(c(O)c3c(=O)n(Cc4ccc(F)c(Cl)c4)nc(C(=O)NC)c32)C1=O, the “mean cytoplasmic OPP incorporation” value falls from 106 to 104.

Compared with C[C@@H](O[C@H]1OCCN(Cc2n[nH]c(=O)[nH]2)[C@H]1c1ccc(F)cc1)c1cc(C(F)(F)F)cc(C(F)(F)F)c1 [Aprepitant (MK-0869)], Cn1cc(/C=C2\C(=O)Nc3cccnc32)c2ccccc21 is lower in “mean cytoplasmic OPP incorporation” value: 105 for the first, 97.9 for the second.

Going from C[C@@H](O[C@H]1OCCN(Cc2n[nH]c(=O)[nH]2)[C@H]1c1ccc(F)cc1)c1cc(C(F)(F)F)cc(C(F)(F)F)c1 [Aprepitant] to CC(N)CCCC(C)(C)O (centres undefined) [Heptaminol hydrochloride], the “mean cytoplasmic OPP incorporation” value falls from 109 to 105.
